According to US20190307771A1, “METHODS AND COMPOSITIONS FOR THE TREATMENT OF CANCER AND METABOLIC DISEASES” (THE REGENTS OF THE UNIVERSITY OF CALIFORNIA, priority 2016, published 2019):

What was measured:
Huh7 and HCT116 cells = settings: cited from earlier work
[1] = tested on: HDAC1, HDAC4, SIRT1, cyclin A2 (CCNA2); test: Western blot of protein deacetylases and cyclin A2 in HCT116 cells; assay type: cell-based; settings: for Protein levels of HDAC1, HDAC4, SIRT1, cyclin A2 after miR-22 (mimic) transfection: HCT116 cells, 48 hours after transfection, vs. scramble control
Method: HCT116 cells were transfected with either an miR-22 mimic or a scramble control, and 48 hours later the protein levels of HDAC4, SIRT1, and cyclin A2 were measured (FIG. 3B). The expression of all three proteins was reduced by treatment with the miR-22 mimic.
Western blot and immunoprecipitation were performed as described previously^22. Specific antibodies used included anti-NUR77, RARβ, SIRT1, β-actin, and IgG (Santa Cruz Biotechnology, Santa Cruz, Calif.), phospho-JNK1/2, total JNK1/2, cleaved caspase3, HDAC1 and HDAC4 (Cell Signaling Technology, Beverly, Mass.), and CCNA2 (Novus Biologicals, Littleton, Colo.). To detect protein acetylation of NUR77 and RARβ, cell lysates (500 μg) were incubated with anti-NUR77, RARβ, or IgG antibody (1 μg), precipitated by adding Dynabeads (30 μl, Life Technologies, Carlsbad, Calif.), and probed with anti-Acetyl-lysine antibody (Cell Signaling Technology, Beverly, Mass.). To study the interaction between RARβ and NUR77, whole-cell lysates were precipitated with anti-RARβ or NUR77 antibody followed by Western blot using anti-NUR77 or RARβ antibody.

[2] = tested on: CYCLIN A2, HDAC1, HDAC4, SIRT1; test: Protein levels in Huh7 liver cancer cells; settings: listed as miR-22 mimics

For “miR-22 mimic: miR-22 mimics (Life Technologies), transfected at 20 nM (guide AAGCUGCCAGUUGAAGAACUGU; mimic duplex, passenger strand not given here)”, the “Number of G0/G1 cells” value (Huh7 and HCT116 cells) is listed as “increased the number of G0/G1 Huh7 and HCT116 cells”, the “Protein levels of HDAC1, HDAC4, SIRT1, cyclin A2 after miR-22 (mimic) transfection” value [1] is listed as “reduced” and the “Protein levels of HDAC1, HDAC4, SIRT1, cyclin A2 after miR-22 (mimic) transfection” value ([1]; listed as miR-22 mimics) is listed as “reduced the protein levels of HDAC4 and SIRT1”. For the same substance, the “CYCLIN A2 levels” value ([1]; colon HCT116 cells, CDCA treatment or miR-22 mimic transfection, listed as miR-22 mimics) was “reduced CYCLIN A2 levels” and the “CYCLIN A2 levels” value [2] was “reduced CYCLIN A2 levels”.
